# Among all 50,000 compounds or so, about 800 (1.6%) showed an effect of 50% or more. The list shows a part of the results.
# Molecular target: Bcl-2-like protein 10 (Homo sapiens) (UniProt Q9HD36)
# Test: Phenotype converters, Bcl-B/TR3 peptide binding displacement, primary biochemical FP (AID 1240);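 note: 0% = Bcl-B with tracer peptide and DMSO and 100% = tracer peptide lacking Bcl-B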
# Settings: GST-Bcl-B / FITC-TR3 peptide fluorescence polarization; stronger effect = higher value; compound at 3.75 mg/L
# Sequence of UniProt Q9HD36 (Q9HD36 whole entry, looked up): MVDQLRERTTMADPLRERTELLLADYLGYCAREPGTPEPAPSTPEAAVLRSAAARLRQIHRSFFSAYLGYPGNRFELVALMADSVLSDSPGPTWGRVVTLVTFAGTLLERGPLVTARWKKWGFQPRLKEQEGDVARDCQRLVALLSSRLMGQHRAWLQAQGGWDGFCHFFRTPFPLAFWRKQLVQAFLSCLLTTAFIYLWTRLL
row,Compound,displacement [%]
1,O=[N+]([O-])c1ccc(N=Cc2cc(I)cc(I)c2O)c(O)c1,-2.2
2,Cc1ccc(C)c(NC(=O)c2sc3cc(C)ccc3c2Cl)c1,7.6
3,COc1cc(C=C2C(=O)c3ccccc3C2=O)ccc1OCc1ccc(F)cc1,88.7
4,COc1cccc(CNc2ccc3c(c2)ncn3-c2ccccc2)c1OC,12
5,CCN1C(=O)/C(=C\c2cccc(C(F)(F)F)c2)SC1=S,10.5
6,COc1cc(OC)cc(C(=O)Nc2c(C)cccc2C)c1,20.4
7,Cc1cc(C)c(/C=C2/SC(N)=NC2=O)c(C)c1,4.6
8,Brc1ccccc1OCCCCCCN1CCOCC1,10
9,Cc1ccc(/C(N)=N/OC(=O)c2ccccc2F)cc1,-14.1
10,CCOc1cc(C=NN2CCN(Cc3ccccc3)CC2)ccc1O,-4
11,CC(C)OC(=O)c1c(-c2ccccc2Cl)csc1N,-1.9
12,O=C(Nc1ccccc1C(=O)O)c1ccc(Br)c(S(=O)(=O)NCc2ccccc2)c1,-5.1
13,O=C(/C=C/c1cccc([N+](=O)[O-])c1)Nc1ccc2nn(-c3ccccc3)nc2c1,0.4
14,N#CC1=C(SCC(=O)OCc2ccccc2)NC(=O)CC1c1cccc2ccccc12 (stereo not drawn),7.8
15,O=C(COc1ccccc1)Nc1cccc2nsnc12,1.2
16,CC(=O)c1cccc(NC(=O)c2ccc(-c3cccc(Cl)c3)o2)c1,1.1
17,CC1CCN(S(=O)(=O)c2ccc(NC(=S)Nc3ccccc3)cc2)CC1,7.6
18,CCOc1ccccc1NC(=O)c1c(NC(=O)COc2ccc(Cl)cc2)sc2c1CCC2,-8.2
19,COc1ccc(S(=O)(=O)Nc2ccc(Oc3ccccc3)cc2)cc1OC,4.5
20,O=C(Nc1c(C(=O)N2CCN(Cc3ccccc3)CC2)cnn1-c1ccccc1)c1cccc(F)c1,3
21,CC1=NNC(=O)C1CC(=O)N/N=C/c1cccc([N+](=O)[O-])c1 (stereo not drawn),-3.4
22,CC(=O)Nc1ccc(N/C(C)=C/C(=O)c2ccc(Br)cc2)cc1,5.6
23,Cc1nn(CC(=O)Nc2cccc(O)c2)c(=O)c2ccccc12,7.1

row,Compound,displacement [%]
1,COc1cc(NC(=O)c2ccccc2[N+](=O)[O-])cc(OC)c1,-0.8
2,COc1ccccc1NC(=O)C1=C(C)NC(=S)NC1c1cccc(Cl)c1 (stereo not drawn),-24.4
3,COc1ccc(C(=O)O/N=C(\N)c2ccc(OC)c(OC)c2)cc1,-5
4,COc1ccc(C(=O)Nc2cc(Cl)ccc2Cl)cc1NC(C)=O,2.3
5,CNS(=O)(=O)c1cc(S(=O)(=O)NC)c2cccc3c2c1NC3=O,4.7
6,C=C(C)CC1(O)CC(c2ccccc2)NC(c2ccccc2)C1CC (stereo not drawn),3
7,Nc1sc2c(c1C(=O)Nc1ccc(Br)cc1)CCCC2,25.3
8,Cc1cccc(NC(=S)NC(=O)c2ccco2)c1,-6.4
9,O=C1NC(=O)N(c2ccc(Br)cc2)C(=O)/C1=C/c1ccco1,30.1
10,Oc1c(I)cc(I)cc1C=Nc1ccc2c(c1)oc1ccccc12,8.9
11,O=C(Nc1ccc(N=Cc2ccc([N+](=O)[O-])cc2)cc1)c1ccccc1Br,3.5
12,O=C(NCCCN1CCOCC1)C(=O)Nc1ccc(F)cc1,11.2
13,COc1ccccc1NCN1C(=O)S/C(=C/c2ccccc2F)C1=O,10.5
14,Cc1c(C(=O)Nc2ccc(N3CCOCC3)cc2)cccc1[N+](=O)[O-],-2.9
15,COc1ccc(N(CC(=O)Nc2ccc(Br)cc2)S(=O)(=O)c2ccc(C)cc2)cc1,1.8
16,O=C1NC(=O)N(c2ccc(Cl)cc2)C(=O)/C1=C/c1ccsc1,-24.1
17,Cn1c(=O)c(-c2ccccc2N)nc2cc3ccccc3cc21,33.6
18,CC1(C)Cc2ccccc2C(Sc2ccc(N)cc2)=N1,10.5
19,Cc1ccc(OCC(=O)Nc2ccccc2-c2ccccc2)cc1,6.8
20,Cc1nc(SCC(=O)c2ccccc2)c(C#N)c(C)c1C,8.3
21,COc1cc(CN2CCN(C3CCCCCC3)CC2)cc(OC)c1OC,-0.4
22,COc1ccc(CNC(=O)CCc2ccccc2)cc1,-0.5
23,CN1CCN(C(=O)/C(=C/c2cccnc2)NC(=O)c2cccc(Br)c2)CC1,3.6

row,Compound,displacement [%]
1,Cc1onc(-c2c(Cl)cccc2Cl)c1C(=O)Nc1ccc(S(=O)(=O)Nc2nccs2)cc1,2.2
2,COc1ccc(C(=O)Nc2ccc(Cl)c(-c3nc4ccccc4[nH]3)c2)cc1,-0.4
3,CCOc1cc(C=O)cc(I)c1OC(C)C,-9.1
4,COC(=O)c1cc(C)sc1NC(=O)C1(C)CC1(Br)Br (stereo not drawn),-42.7
5,N/C(=N\OC(=O)CCc1ccccc1)c1ccc([N+](=O)[O-])cc1,-6.7
6,CC(O)CNC(=O)C(=O)Nc1ccc(N(C)C)cc1 (stereo not drawn),12.9
7,Cc1cc(=O)n(-c2nc(-c3ccccc3)cc(-c3ccc(Br)cc3)n2)[nH]1,-12.6
8,O=C(c1cc2nc(-c3ccccc3)cc(-c3ccccc3)n2n1)N1CCOCC1,-2.8
9,O=C1c2ccccc2-c2nc3cc(Br)cnc3nc21,11
10,c1ccc(Nc2cccc3nonc23)cc1,-15.8
11,COc1ccc(C2CC(=O)N(CCCN(C)C)C2)cc1 (stereo not drawn),-10.9
12,Cc1ccc(CNC(=O)C(=O)NCc2ccc(Cl)cc2)cc1,-0.1
13,CC1(C2CC2)NN=C(c2ccccc2)S1 (stereo not drawn),-5
14,CCCCCCNc1cc(C)oc(=O)c1C(C)=O,-7.3
15,O=C1CC(NCc2ccc3c(c2)OCO3)C(=O)N1c1ccc(OC(F)(F)F)cc1 (stereo not drawn),-15.6
16,CCN(CC)C(=Nc1ccccc1)n1cncn1,6.2
17,CCc1c(C)c2ccc(OC)c(C)c2oc1=O,-4
18,Cc1ccc(OCCOc2ccc(C=O)cc2)cc1C,12.7
19,O=C(Nc1cccc([N+](=O)[O-])c1)c1cc2ccccc2o1,-4.1
20,O=C(CSc1nc2ccccc2s1)c1ccc(-c2ccccc2)cc1,-1.1
21,COc1cccc(/C=N/N2CCN(Cc3cccc4ccccc34)CC2)c1OC,-9.5
22,CC(C)Oc1ccc(NC(=O)C23CC4CC(CC(C4)C2)C3)cc1,15.9
23,Cc1cccc(/C=N\Nc2nnc(-c3ccccc3)c(=O)[nH]2)c1,-6.8

row,Compound,displacement [%]
1,CC(C)C1=NN2C(=N)/C(=C/c3ccc(-c4cccc([N+](=O)[O-])c4)o3)C(=O)N=C2S1,173
2,CCOc1ccc(CN2CCN(C(=O)c3ccco3)CC2)cc1,9
3,CC(=O)N/C(=C\c1ccccc1)C(=O)NCC(=O)O,-6.9
4,Cc1sc(NC(=O)c2sc3ccccc3c2Cl)c(C(N)=O)c1C,-3.2
5,O=C1/C(=C/Nc2ccccc2NS(=O)(=O)c2ccccc2)CCc2ccccc21,10.4
6,C=CCn1c(SCc2ccc(C(=O)NCCO)cc2)nc2sc3c(c2c1=O)CCCC3,19.3
7,OCCCNC(Nc1ccc(Cl)cc1)=C(c1ccccc1)c1ccccc1,-5.7
8,COc1ccccc1N/C=C/C(=O)c1ccc(Cl)cc1,-4.5
9,Cc1ccc(NC(=O)CN(c2cc(Cl)cc(Cl)c2)S(C)(=O)=O)cc1,1.9
10,Cc1cc(N2C(=O)c3ccc(S(=O)(=O)c4ccc(C(=O)O)cc4)cc3C2=O)ccc1[N+](=O)[O-],-7.7
11,CC(NC(=O)Cc1ccccc1)C1COc2ccccc2O1 (stereo not drawn),-10.4
12,OCn1c2ccc(Cl)cc2c2cc(Cl)ccc21,-5.4
13,O=C1c2ccccc2NC(c2ccc(Cl)cc2Cl)N1Cc1ccccc1 (stereo not drawn),14.4
14,Cc1ccc2nsnc2c1NC(=O)c1cccc2ccccc12,-4.4
15,Cc1ccc(S(=O)(=O)NCc2nnc(NC(=O)c3ccc(Br)cc3)s2)cc1,-0.6
16,COc1ccc(CNC(=O)CCCOc2ccc(Cl)cc2Cl)cc1,-6.1
17,CC(=O)Nc1ccc(S(=O)(=O)N(c2cc([N+](=O)[O-])ccc2F)S(=O)(=O)c2ccc(NC(C)=O)cc2)cc1,4.8
18,CCOC(=O)C(=CC(=CN(C)C)C=C(C(=O)OCC)C(=O)OCC)C(=O)OCC,-9.5
19,COc1ccc(OC)c(C2/C(=C(\O)c3ccccc3)C(=O)C(=O)N2c2cccc(Cl)c2)c1 (stereo not drawn),-1.8
20,Cc1cc(OCC(=O)NCCc2ccccc2)ccc1Cl,8.5
21,CCCc1cc(=O)n2[nH]c(-c3cccc(Cl)c3)cc2n1,8.8
22,Cc1cc(C)n(-c2nc(Nc3ccccc3C(F)(F)F)nc(-n3nc(C)cc3C)n2)n1,11.4
23,CCCC(=O)Nc1ccc2oc(-c3ccc(OC)c(Cl)c3)nc2c1,-14.6

row,Compound,displacement [%]
1,CCN1CCC2(CC1)CC1CC3C=CC1(CN2C(C)=O)O3 (stereo not drawn),7.3
2,CC(NC(=O)C(=O)Nc1ccc(F)cc1)c1ccccc1 (stereo not drawn),4.6
3,CCc1c(C)nc2c(C)c(-c3ccc(C)cc3)[nH]n2c1=O,6.7
4,O=C(O)C(Cc1ccccc1)NC(=S)Nc1ccccc1 (stereo not drawn),1.7
5,COC(=O)C1=CNC=C(C(=O)OC)C1c1cccs1,2.9
6,CC(=O)C(Sc1ccccc1)C(=O)c1ccccc1 (stereo not drawn),-4.8
7,COc1ccccc1/C=C1\SC(N2CCCC2)=NC1=O,-137
8,O=C1/C(=C/c2ccc(-c3ccc([N+](=O)[O-])cc3)o2)SC(=S)N1Cc1ccco1,-8.5
9,S=c1[nH]ncn1/N=C/c1ccc(Br)cc1,-9.1
10,CC(C)c1ccc(C2/C(=C(\O)c3ccc(F)cc3)C(=O)C(=O)N2c2nccs2)cc1 (stereo not drawn),15.6
11,COc1cc(Br)c(CN2CCN(Cc3cc(OC)c(OC)c(OC)c3)CC2)cc1OC,-0.7
12,CCC(c1ccccc1)c1nnc(NC(=O)Nc2ccccc2)s1 (stereo not drawn),7.1
13,O=C(c1ccc(F)cc1)N1CCN(Cc2ccc(F)cc2)CC1,11.1
14,COc1ccccc1/C=C/C(=O)c1c2c(c(C)[nH]c1=O)CCCC2,-1.1
15,CCOc1cc(/C=N/N2CCN(c3ccccn3)CC2)ccc1O,-3.3
16,CSc1nnc2c(n1)OC(c1ccc(N(C)C)cc1)Nc1ccccc1-2 (stereo not drawn),10.8
17,CSc1ccc(C=Nc2ccc(C#N)cc2)cc1,7.1
18,Clc1ccccc1CN1CCN(Cc2ccccn2)CC1,-0.2
19,CC(C)CC(=O)N1CCN(Cc2ccco2)CC1,-15.1
20,COc1ccc(C(=O)Nc2ccc(OC)c(OC)c2)c(OC)c1,-4.4
21,Cc1ccccc1OCC(=O)N=Nc1c(O)[nH]c(=O)[nH]c1=O,6.9

# Reference: PubChem BioAssay AID1240 (Sanford-Burnham Center for Chemical Genomics, 2008)
